Biological target: T1, tumor necrosis factor alpha (TNFα), recombinant human (R&D Systems) (human, UniProt P01375 part only)
T1 construct: Bought protein (R&D Systems)
Test: single antigen ELISA, TNFα coated, detection with anti-human IgG Fc-HRP
Experimental: Nunc Maxisorp wells were coated at 4° C. overnight with 50 μl of TNFα (R&D Systems) diluted to 5 μg ml⁻¹ in PBS (pH 7.4). The following day the coating solution was removed and the wells blocked with 150 μl of blocking buffer [3% skimmed milk-PBS] for 1 h at room temperature. The wells were rinsed three times in PBS, prior to the addition of 50 μl of a dilution series of TNFR2-Fc_VH #4 made in blocking buffer. After 1 h at room temperature, the wells were washed three times in PBS-Tween 20 (0.1% v/v; PBS-T). Fifty microliters of biotinylated NGF was then added to the wells and incubated for a further hour at room temperature, prior to washing as above and addition of 50 μl of streptavidin-HRP (1:100). […] The reaction was stopped by the addition of 1M H₂SO₄ and the absorbance at 450 nm was measured using a microtiter plate reader. The resulting data were analyzed using Prism 5 software (GraphPad, San Diego, CA). For the single antigen binding ELISA, the wells were coated with either TNFα or NGF-biotin as above and antibody binding detected with anti-Human IgG Fc specific HRP conjugated antibody (1:5000), and color developed as above.
TNFR2-Fc_VH #4 was designed to bind to both TNFα and NGF antigens. […] Specific binding was detected by using a horseradish peroxidase (HRP)-conjugated anti-IgG Fc specific antibody. […] Specific binding was then detected using an HRP-conjugated streptavidin. […]

T1 sequence (P01375 77-233 limits assumed): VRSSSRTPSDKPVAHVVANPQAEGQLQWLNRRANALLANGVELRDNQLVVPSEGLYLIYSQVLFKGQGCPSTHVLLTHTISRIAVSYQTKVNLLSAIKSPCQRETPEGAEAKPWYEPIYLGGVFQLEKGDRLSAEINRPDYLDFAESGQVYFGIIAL

B1: TNFR2-Fc_VH #4 (Fc fusion)
chain: LPAQVAFTPYAPEPGSTCRLREYYDQTAQMCCSKCSPGQHAKVFCTKTSDTVCDSCEDSTYTQLWNWVPECLSCGSRCSSDQVETQACTREQNRICTCRPGWYCALSKQEGCRLCAPLRKCRPGFGVARPGTETSDVVCKPCAPGTFSNTTSSTDICRPHQICNVVAIPGNASMDAVCTSTSPTRSMAPGAVHLPQPVSTRSQHTQPTPEPSTAPSTSFLLPMGPSPPAEGSTGD[omitted - human IgG1 Fc]GGGGSGGGGSQVQLVQSGAEVKKPGSSVKVSCKASGGTFSTYGISWVRQAPGQGLEWMGGIIPIFDTGNSAQSFQGRVTITADESTSTAYMELSSLRSEDTAVYYCARSSRIYDLNPSLTAYYDMDVWGQGTMVTVSSGGGGSGGGGSGGGGSAQSVLTQPPSVSAAPGQKVTISCSGSSSNIGNNYVSWYQQLPGTAPKLLIYDNNKRPSGIPDRFSGSKSGTSATLGITGLQTGDEADYYCGTWDSSLSAWVFGGGTKLTVL
notes: Purified preparations also held N-terminally truncated species (175 residues missing); also called multispecific antibody
Does B1 bind?
Result: binds

Source: US20240262902A1 (AstraZeneca / MedImmune, published 2024)
